According to PubChem BioAssay AID485344 (National Center for Advancing Translational Sciences (NCATS), 2010):
The campaign covered roughly 340,000 compounds. About 6,900 (2%) were called active. Cut-off read from the data, not from the text of the source: active = inhibition above about 30%; inactive = below that, where a call was filed. The entries are a selection whose mix differs from that of the whole data set. Where no call is shown, the source filed none.

molecular target: D(2) dopamine receptor (Homo sapiens) (UniProt P14416); assay: HTS Assay for Allosteric Antagonists of the Human D2 Dopamine Receptor: Primary Screen for Antagonists; settings: HEK293 TREx D2 cells, calcium flux, dopamine EC80; at 10 µM; stronger effect = higher value; note: 0% is about no effect
Summary of the method: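 Measurement of antagonist activity uses fluorescent calcium dye in inducible HEK293 T-REx D2 cells: 10 s baseline, compound addition with 180 s read, EC80 dopamine addition with a further 180 s read.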

UniProt P14416, sequence (P14416 whole entry, looked up): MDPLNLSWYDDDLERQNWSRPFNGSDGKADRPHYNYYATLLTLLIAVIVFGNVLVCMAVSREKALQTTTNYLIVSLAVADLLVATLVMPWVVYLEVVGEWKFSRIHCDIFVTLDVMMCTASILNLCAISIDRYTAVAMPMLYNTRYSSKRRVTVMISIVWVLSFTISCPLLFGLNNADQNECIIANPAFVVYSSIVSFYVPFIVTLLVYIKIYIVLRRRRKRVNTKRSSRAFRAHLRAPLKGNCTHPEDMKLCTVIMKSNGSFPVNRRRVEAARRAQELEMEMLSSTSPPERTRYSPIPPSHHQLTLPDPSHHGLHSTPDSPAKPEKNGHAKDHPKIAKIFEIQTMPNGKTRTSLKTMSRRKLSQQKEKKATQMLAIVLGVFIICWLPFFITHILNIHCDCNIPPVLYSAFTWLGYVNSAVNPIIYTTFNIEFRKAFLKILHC

| SMILES | inhibition |
| --- | --- |
| CC(=O)N1CCCC1c1nc2ccccc2n1Cc1cc(C)ccc1C (stereo not drawn) | 10% |
| CCOC(=O)N1CCN(S(=O)(=O)N2CCCC(C(=O)NCc3ccccc3OC)C2)CC1 (stereo not drawn) | -3.98% |
| Cc1ccc2ccc3cc(C(=O)Nc4ccc(C)c(F)c4)nc3c2[nH]1 | 6.79% |
| CCOC(=O)c1ccc(CN(Cc2ccc(F)cc2)S(=O)(=O)c2cc(C(=O)Nc3ccccc3CC)ccc2F)cc1 | -2.19% |
| COc1ccc(NC(=O)C2CCCN(S(=O)(=O)c3ccc4[nH]c(=O)ccc4c3)C2)cc1OC (stereo not drawn) | 8.98% |
| Cc1cccc(NC(=O)CSc2nc(C)c(Cc3ccccc3)c(=O)[nH]2)c1C | 2.97% |
| Cc1ccc(CNC(=O)c2cc(Sc3ccc(F)cc3F)nc3ccccc23)cc1 | 12.6% |
| CCC(C(=O)N(C)Cc1ccccc1)n1nc(C)c2sc3ccccc3c2c1=O (stereo not drawn) | -1.28% |
| COc1ccc(CNC(=O)CCc2c(C)nn(-c3ccc(N4CCOCC4)nn3)c2C)cc1 | 14.1% |
| COc1ccc(CCNC(=O)C2=C(C)C(=O)OC23CCCCC3)c(OC)c1 | -4.6% |
| COc1cc(OC)c(NC(=O)CN(C)S(=O)(=O)c2ccc3c(c2)CCCC(=O)N3)cc1Cl | 6.13% |
| CCc1ccc(C(=O)c2cn(CC(=O)Nc3cccc(C)c3C)c3nc(C)ccc3c2=O)cc1 | 24% |
| CCCCN(CC)C(=O)C1CCC(CNS(=O)(=O)c2cccc3nsnc23)CC1 (stereo not drawn) | 0.915% |
| Cc1cc(NC(=O)c2ccco2)cc(-c2nc3cc(Cl)ccc3o2)c1O | 4.3% |
| COc1ccccc1C(=O)N(Cc1ccco1)Cc1ccccc1F | -1.6% |
| COc1ccc(Cl)cc1NC(=O)CN1C(=O)CSc2ccc(S(=O)(=O)N3CCCC3)cc21 | -1.67% |
| CCOc1ccc(NC(=O)CCc2c(C)nc3c(c(C)nn3-c3ccccc3)c2C)cc1 | -1.67% |
| CCOc1ccc(NC(=O)CC2C(=O)N(c3cccc(C)c3)C(=O)N2CCC2=CCCCC2)cc1 (stereo not drawn) | 10% |
| CCc1ccc(CN(Cc2ccco2)C(=O)c2ccc(C)cc2)cc1 | 26% |
| Cc1ccc(S(=O)(=O)n2nc(C)c(S(=O)(=O)N3CCCCC3)c2C)cc1 | -4.01% |
| COc1cccc(CN2CCc3ccc(NC(=O)CCc4ccc(C)cc4)cc3C2)c1O | active: 30.6% |

| SMILES | inhibition |
| --- | --- |
| CC(=O)Nc1ccccc1-c1nc2ccccc2n(C(C)C(=O)Nc2cccc(C)c2C)c1=O (stereo not drawn) | 4.33% |
| CCN(CC)c1ccc(CN(C(=O)c2cccs2)C2CCS(=O)(=O)C2)cc1 (stereo not drawn) | active: 30.1% |
| O=C(Nc1ccccc1)N(Cc1cccs1)c1ccc(Cl)cc1 | -7.79% |
| CC(=O)N(Cc1cccnc1)c1nc2cc(C)cc(C)c2s1 | -25.6% |
| Cc1ccc(-n2c(=O)[nH]c3sc4c(c3c2=O)CCCC4)cc1 | 11.6% |
| CCCCNC(=O)c1cc(-c2ccc(Cl)c(Cl)c2)on1 | 1.67% |
| Cc1cccn2c(=O)cc(COc3ccc(NC(=O)C(C)Oc4ccccc4)cc3)nc12 (stereo not drawn) | 15.1% |
| NS(=O)(=O)c1ccc(NC(=O)CN2CCN(c3ccc(F)cc3)CC2)cc1 | 5.35% |
| Cn1c(=O)c2c(-c3ccccc3Br)n(Cc3ccccc3)cc2n(C)c1=O | -19.8% |
| COc1ccc(-n2c(SCC(=O)NC3CCCCC3)nc3c([nH]c4ccccc43)c2=O)cc1 | -14.5% |
| COc1ccc(-c2cc3c(=O)n(CC(=O)Nc4cc(C)ccc4C)ccn3n2)cc1 | 12.3% |
| Cc1ccc(Cl)cc1-n1ncc2c(NCCC3=CCCCC3)ncnc21 | 4.8% |
| CCOc1ccc(OCC)c(-n2cnnn2)c1 | 8.97% |
| Cc1c(NC(=O)Nc2ccc(Cl)c(C(F)(F)F)c2)c(=O)n(-c2ccccc2)n1C | -0.017% |
| Fc1ccccc1N1CCN(c2ncnc3onc(-c4cccc(Cl)c4)c23)CC1 | 16.4% |
| COc1cccc(OCc2cc(=O)n3cc(C)sc3n2)c1 | 16.8% |
| Cc1ccc(NC(=O)Cn2cc(C(=O)c3ccco3)c3ccccc32)c(C)c1 | -1.57% |
| CCOc1cc(C2CC(=O)Nc3c2c(=O)nc(SCc2cccc(Cl)c2)n3C)ccc1O (stereo not drawn) | -5.78% |
| O=C(Nc1cccc(Cl)c1)c1cc(S(=O)(=O)N2CCCc3ccccc32)ccc1F | 14.6% |
| Cc1ccccc1CNC(=O)c1cc2cccc3c2n1CC(C)S3 (stereo not drawn) | 11.7% |
| COc1ccc(-c2cc(C(=O)Nc3sc4c(c3C(N)=O)CCC(C)C4)no2)cc1 (stereo not drawn) | -10.3% |

| SMILES | inhibition |
| --- | --- |
| CC(=O)Nc1cccc(NC(=O)CSc2nccn2Cc2ccco2)c1 | -26.3% |
| CCOc1ccc(-c2nnc(SCC(=O)c3ccc(F)cc3)n2-c2ccccc2)cc1 | 3.86% |
| Cc1ccc(S(=O)(=O)C(CNC(=O)COc2ccc(Cl)cc2)c2ccco2)cc1 (stereo not drawn) | 20.8% |
| Cc1ccc(NC(=O)N2CCC(C(=O)NCc3ccccc3)CC2)cc1 | active: 39.2% |
| Cc1ccc(NC(=O)c2ccc3c(c2)NC(=O)c2ccccc2S3)cc1 | -3.63% |
| CCN(CC)CCCNC(=O)C(=O)Nc1ccc2nc3n(c(=O)c2c1)CCCCC3 | -2.89% |
| Cc1ccc(Cn2ccnc2SCC(=O)Nc2ccc3c(c2)OCCO3)cc1 | -5.01% |
| COc1ccc(/C=C/C(=O)Nc2ccc(Cl)cc2Cl)cc1 | -8.31% |
| O=C(CN1C(=O)C2(SCC(=O)N2c2ccccc2)c2ccccc21)NCCc1ccccc1 (stereo not drawn) | -5.67% |
| CCc1ccc(NC(=O)CSc2nc3c(sc4ccccc43)c(=O)n2CCN(CC)CC)cc1 | -6.33% |
| Cc1ccc(CNS(=O)(=O)c2cc3c(cc2C)N(C)CCO3)cc1 | 26.7% |
| Cc1cn2c(=O)cc(COC(=O)c3ccccc3F)nc2s1 | 15.5% |
| COc1cc(C)ccc1OCCSc1nc2ccc(NC(=O)c3cccs3)cc2s1 | -11.2% |
| Cc1ccc(C(=O)Nc2ccccc2C(=O)OCc2cc(=O)n3nc(C4CC4)sc3n2)cc1 | 1.78% |
| Cc1ccc(CSCCC(=O)N2CCN(c3cc(C)ccc3C)CC2)cc1 | -23.9% |
| CCCN(CCC)C(=O)C1CCCN(c2ncnc3onc(-c4ccc(F)cc4)c23)C1 (stereo not drawn) | 6.07% |
| COc1ccc(-c2noc(CN(C(=O)Cc3ccc(C)cc3)C(C)C)n2)cc1 | 16.3% |
| COCCCNC(=O)c1sc2nc(C)c(C(=O)Nc3ccc(C)cc3C)c(-c3ccc(Br)cc3)c2c1N | -1.81% |
| COc1ccccc1N1CCN(CC(O)COCCOc2ccc(Br)cc2)CC1 (stereo not drawn) | active: 78.5% |
| CCC(CC)C(=O)NCc1nc2cccnc2n1Cc1ccc(F)cc1 | 6.02% |
| O=C(NCCCO)C(=O)Nc1c2c(nn1-c1ccccc1)CSC2 | 15.5% |
